# Laboratory results: PMC4336329 (PLoS ONE, 2015)
# In all, about 310,000 compounds went through this assay and about 14,000 (4.5%) showed an effect of 50% or more. The effect is printed as a negative number. Some of the results follow.
# Target: human ether-à-go-go-related gene (hERG) potassium channel (human, UniProt Q12809)
# Assay: primary screen, population patch clamp on CHO cells stably expressing hERG
# 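Note: peak tail current of the secondary pulse compared with the same well before compound.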
# human ether-à-go-go-related gene (hERG) potassium channel, sequence (Q12809 whole entry, looked up): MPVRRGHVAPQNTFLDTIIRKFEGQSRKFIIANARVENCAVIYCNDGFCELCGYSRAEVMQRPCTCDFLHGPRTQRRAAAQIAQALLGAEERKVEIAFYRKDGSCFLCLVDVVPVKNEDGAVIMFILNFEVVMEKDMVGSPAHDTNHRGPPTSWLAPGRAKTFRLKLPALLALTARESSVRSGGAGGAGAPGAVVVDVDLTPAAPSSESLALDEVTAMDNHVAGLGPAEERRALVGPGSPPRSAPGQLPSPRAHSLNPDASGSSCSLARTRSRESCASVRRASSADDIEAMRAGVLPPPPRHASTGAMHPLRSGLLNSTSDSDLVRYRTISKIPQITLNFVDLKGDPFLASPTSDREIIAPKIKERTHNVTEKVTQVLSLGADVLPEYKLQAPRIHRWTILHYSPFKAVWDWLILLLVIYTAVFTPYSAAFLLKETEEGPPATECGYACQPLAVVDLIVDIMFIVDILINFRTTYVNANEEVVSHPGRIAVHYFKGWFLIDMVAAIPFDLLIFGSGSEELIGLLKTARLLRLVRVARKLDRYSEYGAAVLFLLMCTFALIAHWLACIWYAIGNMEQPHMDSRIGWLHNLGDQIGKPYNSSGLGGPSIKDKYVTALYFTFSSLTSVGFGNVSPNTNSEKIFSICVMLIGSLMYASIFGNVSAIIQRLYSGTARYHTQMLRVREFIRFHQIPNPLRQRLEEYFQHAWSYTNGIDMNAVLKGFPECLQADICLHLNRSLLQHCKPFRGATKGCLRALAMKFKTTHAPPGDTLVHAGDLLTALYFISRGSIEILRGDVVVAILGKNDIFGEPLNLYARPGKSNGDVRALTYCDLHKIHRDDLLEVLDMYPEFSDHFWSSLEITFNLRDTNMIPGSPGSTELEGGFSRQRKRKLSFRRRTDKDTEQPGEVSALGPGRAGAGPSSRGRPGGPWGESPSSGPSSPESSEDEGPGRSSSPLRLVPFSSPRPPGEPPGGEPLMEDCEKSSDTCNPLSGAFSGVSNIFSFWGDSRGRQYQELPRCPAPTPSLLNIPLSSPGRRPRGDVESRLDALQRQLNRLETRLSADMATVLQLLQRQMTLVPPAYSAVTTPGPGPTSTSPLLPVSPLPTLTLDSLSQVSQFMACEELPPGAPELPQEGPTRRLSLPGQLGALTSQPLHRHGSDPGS
row,Compound,"hERG current change (%, negative = inhibition) at 10uM"
1,O=C(NCC1CCCN(C(=O)Cc2ccccc2Cl)C1)c1ccc(F)cc1 (centres unmarked),-12.8%
2,NC(=O)C1CCN(c2nc(C3CC3)nc3c2nnn3Cc2ccccc2)CC1,-21.2%
3,Cc1c(NC(=O)Nc2ccc(C(C)(C)C)cc2)c(=O)n(-c2ccccc2)n1C,21%
4,COc1ccc(-n2nc3c(N4CCC(C(=O)N5CCC(C)CC5)CC4)nnc(C)c3c2C)cc1,-46.3%
5,CC(=O)Nc1ccc(OCCC[n+]2ccccc2)cc1.[Cl-],40.4%
6,Clc1ccc2nnc(Cl)n2n1,18.8%
7,O=C(CSc1nc2c(c(=O)[nH]1)CCC2)Nc1ccc(F)cc1,14%
8,CN(CC(=O)Nn1cnnc1)S(=O)(=O)c1ccccc1,17%
9,Cc1c(CCC(=O)O)c(=O)oc2c(C)c(OCc3cc4c(cc3Cl)OCO4)ccc12,8.28%
10,CCCC(=O)C1=C(O)C(C(=O)OC)C(C)(C)CC1=Nc1cccc([N+](=O)[O-])c1 (centres unmarked),-4.48%
11,COc1ccc(NC(=O)C2CCN(S(=O)(=O)c3cccc4cccnc34)CC2)cc1OC,9.47%
12,CCOc1ccc(OCC)c(NC(=O)C2CCN(S(=O)(=O)c3cccnc3)CC2)c1,-29.9%
13,O=C(c1ccc2c(=O)n(CCc3ccccc3)c(=O)[nH]c2c1)N1CCN(c2ccccc2)CC1,7.84%
14,Cc1ccc(/C=N/NC(=O)c2ccoc2C)o1,11.9%
15,CC(=O)Nc1cccc(C(=O)NNC(=O)c2n[nH]c(=O)c3ccccc23)c1,-9.25%
16,NC(=O)COC(=O)CSc1ccc2ccccc2c1,-6.46%
17,COc1cc(OC)cc(C(=O)NCCCCCCNC(=O)c2cc(OC)cc(OC)c2)c1,-2.76%
18,O=C(CN1C(=O)C2CC=CCC2C1=O)Nc1ccc(S(=O)(=O)Nc2ncccn2)cc1 (centres unmarked),7.99%
19,CCc1c(C)nc2c(-c3ccccc3)c(C)[nH]n2c1=O,23.4%
20,CCCCn1c(-c2csc3c2CCCC3)n[nH]c1=S,1.64%
21,Cc1ccc(C(=O)N2NC(c3ccc(F)cc3)C3C(=O)N(c4ccc(C)c(C)c4)C(=O)C32)cc1 (centres unmarked),8.74%
22,CCCSC1=N/C(=C/c2ccsc2)C(=O)N1c1ccccc1,16.5%
23,S=c1[nH]nc(-c2ccc(Cl)cc2)n1CC1CCCO1 (centres unmarked),14.8%

row,Compound,"hERG current change (%, negative = inhibition) at 10uM"
1,O=C(Cn1nc(-c2ccco2)ccc1=O)Nc1ccc(Cl)c(Cl)c1,13.6%
2,Cc1ccccc1NC(=O)CCS(=O)(=O)c1ccc(Br)s1,24.3%
3,O=C1NCCCCC1NC1CC(=O)N(c2ccccc2)C1=O (centres unmarked),4.68%
4,Cc1ccc(S(=O)(=O)CC(=O)NCc2ccc(Cl)cc2)cc1,-3.37%
5,COc1ccccc1N1CCN(C(=O)CSc2nnc(NC(=O)C(C)C)s2)CC1,2.66%
6,CCN(CC(=O)Nc1ccc(N2CCOCC2)cc1)C(=O)c1ccc(C(F)(F)F)cc1,-5.99%
7,Clc1ccc(C(c2nnnn2CCc2ccccc2)N2CCSCC2)cc1 (centres unmarked),0.814%
8,CCC(C)(C)n1nnnc1C(C(C)C)N1CCN(C(=O)c2ccco2)CC1 (centres unmarked),-29.7%
9,COc1ccc(C(=O)Nc2ccnn2C2CCN(C(=O)C3CCOC3)CC2)cc1 (centres unmarked),17.9%
10,CCCC(=O)Nc1nnc(SCC(=O)Nc2ccc3c(c2)OCCO3)s1,15.4%
11,O=C(Nc1c(F)cc(F)cc1Br)C1CCCO1 (centres unmarked),5.42%
12,Cc1cc(C)nc(NN=C2CCCC2)n1,10.3%
13,COc1ccc(C(=O)COc2ccc(NC(C)=O)cc2)cc1,9.72%
14,O=S(=O)(Nc1cccc(-c2ccc3nncn3n2)c1)c1cc(F)ccc1F,0.23%
15,CN(/N=C/c1ccncc1)c1cnn(-c2ccc(F)c(Cl)c2)c(=O)c1Cl,-35.3%
16,CSc1nnc(-c2ccccc2)c(=O)[nH]1,13.9%
17,Cc1ccc(O)c(-c2cc(C(=O)NCc3ccncc3)[nH]n2)c1,9.85%
18,COc1cc2c(C(=O)N3CCOCC3)c(CSc3ccccc3)n(C)c2cc1Br,-6.35%
19,COc1ccc(C(=O)/C=C/C(=O)N(CC(=O)NC2CCCCC2)Cc2cccs2)c(O)c1,-8.34%
20,CCOC(=O)N/N=C(\C)c1cccs1,20.2%
21,COc1ccc2cc(C(N)=O)c(=Nc3ccccc3)oc2c1,6.28%
22,O=C(NNC(=O)C1CCCO1)c1ccccc1Cl (centres unmarked),-3.68%
23,O=C(CCC(=O)N/N=C/c1ccccc1O)NCc1ccccc1,5.19%

row,Compound,"hERG current change (%, negative = inhibition) at 10uM"
1,CCc1nc2ccc(C(=O)Nc3nnc(C)s3)cc2nc1CC,17%
2,Fc1ccc(Br)cc1SCCc1ccncc1,-11.9%
3,Cc1ccc(C)c(NC(=O)CSc2nnc(-c3ccccc3)o2)c1,-5.06%
4,COc1ccccc1OCC(=O)NNC(=O)c1ccoc1C,39.4%
5,COc1ccc(OC)c(-c2csc(NC(=O)C3COc4ccccc4O3)n2)c1 (centres unmarked),21%
6,COCCOC(=O)C1=C(C)N=C2SCCC(=O)N2C1c1cccc(Br)c1 (centres unmarked),-11.4%
7,COc1ccc(OCC(Cn2cnc3ccccc32)OC(C)=O)cc1.Cl (centres unmarked),-26%
8,COc1ccc(CCNC(=O)C2CCN(S(=O)(=O)c3ccc(F)cc3)CC2)cc1,0.507%
9,Cn1c(SCC(=O)NC2CCCC2)nnc1-c1ccc(S(=O)(=O)N2CCOCC2)cc1,-0.488%
10,CC(OC(=O)c1cccs1)C(=O)NC1CCCCC1C (centres unmarked),-66.7%
11,CN(C)CCN(CC1CCCN(Cc2ccccc2F)C1)C(=O)c1ccc(F)cc1 (centres unmarked),3.46%
12,Cc1ccc(CSCC(=O)Nc2ccccc2)cc1,12.4%
13,Cc1c(Br)cnn1C(C)C(=O)N1CCN(c2ccccc2F)CC1 (centres unmarked),-38.3%
14,O=C(CN1C(=O)CCC1=O)Nc1nc(-c2ccc(Oc3ccccc3)cc2)cs1,-7.31%
15,Cc1cc[n+](-c2[nH]c(=O)sc2/C=N/NC([S-])=Nc2ccccc2)cc1C,-0.725%
16,O=C(COC(=O)C1CCCCC1C(=O)N1CCc2ccccc21)NCc1ccco1 (centres unmarked),-21.3%
17,COC(=O)[C@@H](NC(=O)N(C1CCCCC1)C1CCCCC1)C(C)C,-7.86%
18,N#C/C(=N/Nc1ccccc1F)C(=N)N1CCOCC1,9.62%
19,CCC(C)(C(=O)NC1CCCCC1)N(C(=O)c1ccccn1)c1ccccc1 (centres unmarked),-44.8%
20,Cc1c(C)n(CCCN(C)C)c2ncnc(NCc3ccccc3)c12,-13.9%
21,COc1cccc(C(=O)NNC2OC(CO)C(O)C2O)c1 (centres unmarked),22.3%
22,O=C(NC(Cc1ccccc1)C(=O)O)/C(=C\c1cccc([N+](=O)[O-])c1)NC(=O)c1ccco1 (centres unmarked),28.4%
23,O=C(COc1cccnc1[N+](=O)[O-])N1N=C(c2ccc(Cl)cc2)CC1c1ccco1 (centres unmarked),16.9%

row,Compound,"hERG current change (%, negative = inhibition) at 10uM"
1,COc1ccc(C(C)=O)cc1CN1C(=O)C(C)N(c2ccc(C)cc2)C1=O (centres unmarked),-25.4%
2,Cc1cc(C)nc(N2CCCC(C(=O)Nc3cccc(Cl)c3)C2)n1 (centres unmarked),17.3%
3,Cn1c(SCC(=O)N2CCN(c3cccc(Cl)c3)CC2)nnc1-c1ccncc1,-55.9%
4,Cc1cc(SCC(=O)c2cccs2)nc2c(C)cccc12,0.476%
5,COc1ccc(C(=O)NNC(=O)C(NC(=O)c2ccccc2NC(=O)c2ccco2)C(C)C)cc1 (centres unmarked),-32.3%
6,O=C(Nc1ncccn1)c1ccc([N+](=O)[O-])cc1[N+](=O)[O-],-7.61%
7,NS(=O)(=O)c1ccc(NC(=O)COC(=O)C2(c3ccccc3F)CCCC2)cc1,6.61%
8,CN=C(Nc1cc(C)nn1CCC#N)c1ccc(F)cc1,6.14%
9,O=C(c1ccc(F)cc1)N1CCN(c2cc(N3CCCCC3)c(F)cc2[N+](=O)[O-])CC1,-24.6%
10,Brc1cc(/C=N/n2cnnc2)oc1Br,1.7%
11,CCC1(CC)Cc2ccccc2-c2nc3ccccc3c(=O)n21,11.4%
12,CC(C)CCNC(=O)CN(CCN1CCOCC1)C(=O)Cn1nnc(-c2ccc(F)cc2)n1,-11.1%
13,CCCN1C(=O)C2(C(C(=O)c3ccc(C)o3)=C(O)C(=O)N2CCCOC)c2ccccc21 (centres unmarked),9.53%
14,COC(=O)/C=C/c1ccc2c(c1)S(=O)(=O)N(c1cccc(OC)c1)[C@H]2CC(=O)OC,-7.05%
15,O=C(CCc1ccccc1)c1c(O)cc(O)cc1O,3.92%
16,Br.CC1=C(c2ccccc2)SC2=NCCN21,-10.7%
17,O=[N+]([O-])c1ccc(Cl)c(/C=N/n2c(COc3ccccc3)n[nH]c2=S)c1,12.7%
18,C=CCOc1c(CNc2ncn[nH]2)cccc1OCC,-0.669%
19,O=C1C(Cl)=C(N2CCOCC2)C(=O)N1c1ccccc1F,20.3%
20,O=C(NCC1CCCO1)C1CCCCN1S(=O)(=O)c1ccc(F)cc1 (centres unmarked),1.57%
